Measurements from PubChem BioAssay AID1347165 (National Center for Advancing Translational Sciences (NCATS), 2019).
Hit rate of the full screen: of about 220,000 compounds, about 5,700 (2.6%) were called active. Inconclusive results, whose numbers are uncertain, are shown with a selection of clear calls. Calls come from the whole dose curve; as a rule, active = well fitted inhibition curve with a large enough effect; inconclusive = small, poorly fitted or top-dose-only effect; inactive = no such curve, though single readings can be large or run the other way. Where the call is inconclusive, the potency comes from a doubtful curve fit.

molecular target: Lysine-specific demethylase 5B (Homo sapiens) (UniProt Q9UGL1); assay: Primary screen for KDM5B Histone Demethylases FDH-coupled qHTS; conditions: FDH-coupled NADH fluorescence (FDH is formaldehyde dehydrogenase); activity change, negative = inhibition: at 57.7 µM (top of the series) unless noted; note: nearly all actives have a fitted effect of over 70% in size; for activity change, negative = inhibition: 0% is about no effect
Procedure, shortened: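 Here, H3K4me3 peptide (12.5 µM in substrate mix) is demethylated by KDM5BΔAP, 200 nM final, after 10 min compound exposure. Formaldehyde product is coupled through FDH (0.25 U/mL in mix) to NADH fluorescence; 30-min ΔRFU feeds dose-response curves.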
Potency is the fitted concentration of half-maximal effect; tags give direction and shape of the fitted curve.

UniProt Q9UGL1, sequence (Q9UGL1 whole entry, looked up): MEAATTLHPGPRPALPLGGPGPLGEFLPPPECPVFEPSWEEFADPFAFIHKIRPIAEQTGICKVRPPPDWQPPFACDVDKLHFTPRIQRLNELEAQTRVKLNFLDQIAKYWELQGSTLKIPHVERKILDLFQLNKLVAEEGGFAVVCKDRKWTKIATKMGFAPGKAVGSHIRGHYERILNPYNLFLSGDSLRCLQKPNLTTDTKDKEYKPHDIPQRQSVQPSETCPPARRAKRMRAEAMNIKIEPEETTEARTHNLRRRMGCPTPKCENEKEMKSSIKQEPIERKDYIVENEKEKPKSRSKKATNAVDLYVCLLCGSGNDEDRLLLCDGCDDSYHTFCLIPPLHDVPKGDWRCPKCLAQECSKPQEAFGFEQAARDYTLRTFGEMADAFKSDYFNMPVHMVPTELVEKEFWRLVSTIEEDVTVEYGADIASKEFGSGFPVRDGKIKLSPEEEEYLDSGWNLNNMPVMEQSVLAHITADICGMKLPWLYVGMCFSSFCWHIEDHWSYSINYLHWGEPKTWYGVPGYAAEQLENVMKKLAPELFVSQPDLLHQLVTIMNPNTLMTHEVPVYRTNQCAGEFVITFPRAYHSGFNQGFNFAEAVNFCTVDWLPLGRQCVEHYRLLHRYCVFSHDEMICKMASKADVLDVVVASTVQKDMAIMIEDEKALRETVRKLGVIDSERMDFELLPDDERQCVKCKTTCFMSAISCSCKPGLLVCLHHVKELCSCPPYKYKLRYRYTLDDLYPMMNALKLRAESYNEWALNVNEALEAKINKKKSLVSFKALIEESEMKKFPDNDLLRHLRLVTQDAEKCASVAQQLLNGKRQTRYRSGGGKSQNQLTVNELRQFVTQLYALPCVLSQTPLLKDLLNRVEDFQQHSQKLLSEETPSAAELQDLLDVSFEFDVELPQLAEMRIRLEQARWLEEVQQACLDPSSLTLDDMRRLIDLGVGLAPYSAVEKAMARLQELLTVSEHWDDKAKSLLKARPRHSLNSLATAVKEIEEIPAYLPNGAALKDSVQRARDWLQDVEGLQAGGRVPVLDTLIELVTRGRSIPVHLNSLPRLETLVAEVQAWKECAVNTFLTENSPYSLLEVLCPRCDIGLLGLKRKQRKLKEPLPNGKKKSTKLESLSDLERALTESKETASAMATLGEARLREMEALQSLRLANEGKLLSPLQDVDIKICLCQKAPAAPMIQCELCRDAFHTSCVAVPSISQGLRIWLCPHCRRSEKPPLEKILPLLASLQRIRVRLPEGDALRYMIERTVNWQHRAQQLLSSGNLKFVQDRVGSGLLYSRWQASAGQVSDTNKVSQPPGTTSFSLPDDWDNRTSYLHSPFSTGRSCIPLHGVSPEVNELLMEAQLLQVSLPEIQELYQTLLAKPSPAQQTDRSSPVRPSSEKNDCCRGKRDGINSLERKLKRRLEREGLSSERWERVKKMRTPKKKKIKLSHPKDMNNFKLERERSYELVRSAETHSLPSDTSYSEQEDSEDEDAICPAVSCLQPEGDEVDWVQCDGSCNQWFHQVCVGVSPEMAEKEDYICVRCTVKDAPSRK

| SMILES | activity change, negative = inhibition | Potency |
| --- | --- | --- |
| O=C(NCc1ccc(F)cc1)c1cc(C2CC2)nc2onc(C3CCCN3)c12 (stereo unspecified) | inactive: -26.9% [at 115 µM] | – |
| O=C(Cc1ccccc1)NCCC1CCN(C(=O)Nc2cc(F)ccc2F)CC1 | inactive: -0.455% | – |
| COc1ccccc1CNC(=O)C1(CCO)CCN(c2ncccn2)C1 (stereo unspecified) | – | active: 20 µM |
| COc1ccc(Cl)cc1-c1ccc2c(c1)C(=O)N1CCN(C(=O)CC3(CC(=O)O)CCCC3)C[C@H]1C(=O)N2 | inactive: 19.8% | – |
| Cc1ccccc1Cn1nc(C)c(NC(=O)Nc2cccc(F)c2)c1C | inactive: 0.363% | – |
| Cn1cccc1/C=N/NC(=O)CNc1cccc2ccccc12 | – | inconclusive: 31.6 µM [inhibitor, single point] |
| N#Cc1ccc(Oc2cccc3cccnc23)c([N+](=O)[O-])c1 | – | inconclusive: 28.2 µM [inhibitor, partial curve, poor fit] |
| Cc1oc(-c2cccs2)nc1CC(=O)NCCc1cccs1 | – | inconclusive: 10 µM [inhibitor, single point] |
| O=c1c2nc(-c3ccoc3)ccc2ncn1-c1ccc(F)cc1F | – | inconclusive: 39.8 µM [inhibitor, partial curve, poor fit] |
| CNC(=O)c1cc(-c2ccc(OC)c(OC)c2)cc2c1OCCN2Cc1cccnc1 | – | active: 31.6 µM |
| Cc1ccc(S(=O)(=O)CCc2ccccc2Cl)cc1C | inactive: -14.3% | – |
| COc1ccc(NC(=O)c2cc3c(=O)n(Cc4cccs4)ccc3nc2C)c(OC)c1 | – | inconclusive: 35.5 µM [inhibitor, single point] |
| Cc1nn(CCO)c(C)c1NC(=O)CCc1cc2n(n1)CCCNC2 | – | inconclusive: 7.94 µM [inhibitor, partial curve, poor fit] |
| O=C(N1CCCC(Cc2nc(C3CCOCC3)no2)C1)C1(c2ccccc2)CC1 (stereo unspecified) | – | inconclusive: 35.5 µM [inhibitor, partial curve, poor fit] |
| O=C(Nc1cccc(N2CCCC2=O)c1)c1ccc(-n2cnc3ccccc32)cc1 | inactive: -2.75% | – |
| Cc1cc(NC(=O)C2CC(=O)N(c3cccc(C)c3C)C2)no1 (stereo unspecified) | inactive: 20.7% | – |
| Cc1cccc(-c2nc3cnccn3c2NCCC(=O)N2CCCCCC2)c1 | – | active: 28.2 µM |
| CCOc1ccc(NC(=O)CC2Nc3cccc4cccc(c34)NC2=O)cc1 (stereo unspecified) | – | inconclusive: 28.2 µM [inhibitor, partial curve, poor fit] |
| Fc1ccc2oc([C@H]3CCN(C4CCOCC4)C3)nc2c1 | – | active: 44.7 µM |
| Cn1nc(C(=O)NCC(=O)N2CCCCCCNC(=O)CC2c2ccccc2)c2ccccc21 (stereo unspecified) | – | inconclusive: 35.5 µM [inhibitor, partial curve, poor fit] |
| COc1cccc(CN2Cc3cc(NC(=O)Cc4cccs4)ccc3OCC2=O)c1OC | – | inconclusive: 25.1 µM [inhibitor, single point] |
| CC1=C(c2ccc(C)c(C)c2)S(=O)(=O)N=C1N1CCN(c2cccc(C)c2)C(C)C1 (stereo unspecified) | inactive: -34.5% | – |

| SMILES | activity change, negative = inhibition | Potency |
| --- | --- | --- |
| Cc1ccc2c(C)c(CCC(=O)NC3CCN(C)CC3)c(=O)oc2c1 | inactive: -26.3% | – |
| CS(=O)(=O)/C(C#N)=C\c1ccc(-c2ccccc2)cc1 | – | inconclusive: 20 µM [inhibitor, partial curve, poor fit] |
| CC1CCC2(CCc3cc4c5c(c(=O)oc4cc3O2)CCCC5)CC1 (stereo unspecified) | – | inconclusive: 31.6 µM [inhibitor, partial curve, poor fit] |
| Cc1ccc(-n2ncc(C(=O)NCc3ccc4c(c3)OCO4)c2C2CCN(C(=O)OC(C)(C)C)CC2)cc1C | inconclusive: -31% [inhibitor] | – |
| O=C1CCCCC(CNC(=O)c2nccc3ccccc23)N1 (stereo unspecified) | – | inconclusive: 17.8 µM [inhibitor, partial curve, poor fit] |
| Cc1ccc(NCc2cccn2-c2nnc(N3CCC(C(=O)NCc4ccccc4C)CC3)s2)cc1 | – | inconclusive: 5.62 µM [inhibitor, partial curve, poor fit] |
| CC(C)(C)c1nnc2sc(-c3cc4ccccc4[nH]3)nn12 | – | inconclusive: 31.6 µM [inhibitor, single point] |
| Cc1cc(Cl)ccc1Nc1ncncc1-c1nc(-c2ccccc2)no1 | – | inconclusive: 10 µM [inhibitor, partial curve, poor fit] |
| CCC(CC)C(=O)Nc1cccc(-c2nc3ncccn3c2C)c1 | – | inconclusive: 25.1 µM [inhibitor, partial curve, poor fit] |
| O=C1NCCCCCCN(C(=O)CCCc2ccccc2)[C@H]2CCCC[C@@H]12 | inactive: -17.3% | – |
| Cc1ccccc1C(=O)Nc1ccnn1C1CCN(C(=O)CN)CC1 | – | inconclusive: 10 µM [inhibitor, partial curve, poor fit] |
| CC(C)(C)c1ccc(C(=O)Nc2nc3c(s2)C[C@@H]2[C@](C)(CO)[C@H](O)CC[C@@]2(C)[C@@H]3CC(=O)NCc2ccco2)cc1 | – | active: 17.8 µM |
| CN1CCN(CCNC(=O)c2cnn(-c3cccc(Cl)c3)c2C2CCN(C(=O)OC(C)(C)C)CC2)CC1 | – | inconclusive: 31.6 µM [inhibitor, partial curve, poor fit] |
| COc1ccccc1C(=O)NC1CCN(C(=O)c2cc3c(=O)[nH]c(C)cn3n2)CC1 | inactive: -26.8% | – |
| Cc1ccc(C)c(-c2cc3c(=O)n(CCNC(=O)c4cccs4)ccn3n2)c1 | – | inconclusive: 35.5 µM [inhibitor, partial curve, poor fit] |
| CC1CCN(CC2CCCCN2)CC1 (stereo unspecified) | – | inconclusive: 17.8 µM [inhibitor, partial curve, poor fit] |
| COc1cccc(-c2nn(C)c3sc(C(=O)NCc4ccc(C)cc4)cc23)c1 | – | inconclusive: 31.6 µM [inhibitor, partial curve, poor fit] |
| O=C(c1ccccc1F)N1CCn2c(nn(-c3ccc(C(F)(F)F)cc3)c2=O)C1 | – | inconclusive: 79.4 µM [inhibitor, partial curve, poor fit] |
| Cc1cc(Cn2cc3c4c(cccc42)[C@H](CC(C)C)N[C@H](C(=O)NC(C)C)C3)no1 | – | inconclusive: 35.5 µM [inhibitor, partial curve, poor fit] |
| COc1ccc(-c2c(C)c3ccc(OS(C)(=O)=O)cc3oc2=O)cc1 | – | inconclusive: 25.1 µM [inhibitor, partial curve, poor fit] |
| COc1ccc(-c2cc3nc4c(c(=O)n3[nH]2)CN(C(=O)CCCc2c[nH]c3ccccc23)CC4)cc1 | – | inconclusive: 28.2 µM [inhibitor, partial curve, poor fit] |
| COCCCNC(=O)CSc1nc(-c2ccc(OC)cc2)[nH]c1-c1ccc(OC)cc1 | inactive: -0.777% | – |

| SMILES | activity change, negative = inhibition | Potency |
| --- | --- | --- |
| CCCCc1ccc2[nH]c(C(=O)OCC)cc2c1 | – | inconclusive: 20 µM [inhibitor, partial curve, poor fit] |
| CN1c2cc(C(=O)NCc3cc(F)cc(F)c3)ccc2C(=O)N2CCCCC21 (stereo unspecified) | – | inconclusive: 22.4 µM [inhibitor, partial curve, poor fit] |
| Cc1nnc(-c2cc(C(=O)NCCN(C)C)ccn2)n1CCc1ccccc1 | – | inconclusive: 28.2 µM [inhibitor, single point] |
| C[C@]1(CO)[C@H]2Cc3sc(NC(=O)C4CCCCC4)nc3[C@@H](CC(=O)NCc3cccs3)[C@]2(C)CC[C@H]1O | inactive: -19.3% | – |
| COc1ccccc1N1CCCc2ncc(C(=O)N3CC[S+](=O)([O-])CC3)cc21 | inactive: 6% [at 86.2 µM] | – |
| COCc1ccc2c(c1)c(OC(C)(C)C(=O)NCCN1CCOCC1)nn2Cc1ccccc1 | – | inconclusive: 35.5 µM [inhibitor, partial curve, poor fit] |
| O=C(NC1CCN(c2cc(-c3cccs3)[nH]n2)C1)c1cccc(OC(F)(F)F)c1 (stereo unspecified) | – | active: 5.01 µM |
| C=CCN(Cc1ccc(OC)cc1)C(=O)c1cc(=O)c2ccccc2o1 | inactive: -3.67% | – |
| CCN1CCN(C(=O)c2cn(Cc3ccccc3)nc2-c2ccc(C)c(C)c2)CC1 | inactive: 13.6% | – |
| Cc1ncsc1CN1CCCCC1c1nc(CCOCC2CC2)no1 (stereo unspecified) | – | active: 17.8 µM |
| c1cc2c(cc1OC1CN(CC3CCCCC3)C1)OCO2 | – | inconclusive: 63.1 µM [inhibitor, partial curve, poor fit] |
| Cc1nnc(-c2ccncc2)nc1C | inactive: -13.9% | – |
| O=C(Nc1ccc(-c2cn3cccnc3n2)cc1)c1ccccc1F | – | inconclusive: 28.2 µM [inhibitor, partial curve, poor fit] |
| CCOc1ccccc1CN1CCC2(CCN(C(=O)c3ccccc3Cl)CC2)Oc2ccccc21 | – | inconclusive: 8.91 µM [inhibitor, partial curve] |
| COc1ccc(OC)c(C(O)Cn2ccn3nc(-c4cccs4)cc3c2=O)c1 (stereo unspecified) | inactive: -34.5% | – |
| CCc1ccc(NC(=O)CCCn2cnc3c2c(=O)n(C)c(=O)n3C)cc1 | inactive: -7.05% | – |
| CCCCN(CCCC)S(=O)(=O)c1ccc(C(=O)Nc2sc3c(c2C(N)=O)CCN(CC)C3)cc1 | – | inconclusive: 28.2 µM [inhibitor, partial curve, poor fit] |
| O=C(c1ccncc1)N1CCC(Oc2ccccc2-c2nc(-c3ccccc3)no2)C1 (stereo unspecified) | – | inconclusive: 17.8 µM [inhibitor, partial curve] |
| COC[C@@H]1CN(c2cnccn2)C[C@H]1C(=O)NCCCn1cccn1 | – | active: 20 µM |
| COc1ccc(N2CCN(c3oc(-c4ccccc4C)nc3S(=O)(=O)c3ccccc3)CC2)cc1 | – | inconclusive: 15.8 µM [inhibitor, partial curve, poor fit] |
| COc1ccc(NC(=O)c2cc3n(n2)CC(c2ccc(Cl)cc2)OC3)cc1OC (stereo unspecified) | – | inconclusive: 28.2 µM [inhibitor, single point] |
| COc1ccc(-c2nc(Cn3c(SCc4cccc(F)c4)nc4cccnc43)c(C)o2)cc1 | – | inconclusive: 28.2 µM [inhibitor, partial curve, poor fit] |
